# Results: the supplement of paper PMC8728848
# Some of the results follow.
# Columns and labels:
# Experiment in all cases: glycan array binding signal (z-score within array); higher = stronger binding
# Conditions in all cases: glycan notation: IUPAC condensed, linker removed
# [1] = target: Gal(a1-3)Gal(b1-4)GlcNAc(b1-2)Man
# Method in brief: (§1)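 From the Consortium for Functional Glycomics database, 3228 arrays were curated, keeping only those whose protein sequence was available. Binding is given as a within-array Z-score averaged across arrays sharing a protein sequence and across linkers. Negative Z-scores can be read as non-binding.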
# [2] = target: Gal(a1-3)Gal(b1-4)GlcNAc(b1-2)Man(a1-3)[Gal(a1-3)Gal(b1-4)GlcNAc(b1-2)Man(a1-6)]Man(b1-4)GlcNAc(b1-4)GlcNAc
# Method in brief: as §1
# [3] = target: Gal(a1-3)Gal(b1-4)GlcNAc(b1-3)GalNAc
# Method in brief: as §1
# [4] = target: Gal(a1-3)Gal(b1-4)GlcNAc(b1-6)GalNAc
# Method in brief: as §1
# [5] = target: Gal(a1-3)Gal(b1-4)[Fuc(a1-3)]GlcNAc
# Method in brief: as §1
# [6] = target: Gal(a1-3)Gal(b1-4)[Fuc(a1-3)]GlcNAc(b1-2)Man(a1-3)[Gal(a1-3)Gal(b1-4)[Fuc(a1-3)]GlcNAc(b1-2)Man(a1-6)]Man(b1-4)GlcNAc(b1-4)GlcNAc
# Method in brief: as §1
# [7] = target: Gal(a1-3)GalNAc
# Method in brief: as §1
# [8] = target: Gal(a1-3)[Gal(a1-4)]Gal(b1-4)GlcNAc
# Method in brief: as §1
# [9] = target: Gal(a1-4)Gal(b1-3)GlcNAc(b1-2)Man(a1-3)[Gal(a1-4)Gal(b1-3)GlcNAc(b1-2)Man(a1-6)]Man(b1-4)GlcNAc(b1-4)GlcNAc
# Method in brief: as §1
# [10] = target: Gal(a1-4)Gal(b1-4)Glc
# Method in brief: as §1
# [11] = target: Gal(a1-4)Gal(b1-4)GlcNAc
# Method in brief: as §1
# [12] = target: Gal(a1-4)Gal(b1-4)GlcNAc(b1-2)Man(a1-3)[Gal(a1-4)Gal(b1-4)GlcNAc(b1-2)Man(a1-6)]Man(b1-4)GlcNAc(b1-4)GlcNAc
# Method in brief: as §1
# [13] = target: Gal(a1-4)Gal(b1-4)GlcNAc(b1-3)Gal(b1-4)Glc
# Method in brief: as §1
# [14] = target: Gal(a1-4)GlcNAc
# Method in brief: as §1
# [15] = target: Gal(a1-6)Glc
# Method in brief: as §1
# [16] = target: Gal(b1-2)Gal
# Method in brief: as §1
# [17] = target: Gal(b1-3)Gal
# Method in brief: as §1
# [18] = target: Gal(b1-3)Gal(b1-4)GlcNAc
# Method in brief: as §1
# [19] = target: Gal(b1-3)GalNAc
# Method in brief: as §1
# [20] = target: Gal(b1-3)GalNAc(a1-3)[Fuc(a1-2)]Gal(b1-4)Glc
# Method in brief: as §1
# [21] = target: Gal(b1-3)GalNAc(a1-3)[Fuc(a1-2)]Gal(b1-4)GlcNAc
# Method in brief: as §1
# [22] = target: Gal(b1-3)GalNAc(b1-3)Gal
# Method in brief: as §1
# [23] = target: Gal(b1-3)GalNAc(b1-3)Gal(a1-4)Gal(b1-4)Glc
# Method in brief: as §1
# [24] = target: Gal(b1-3)GalNAc(b1-4)Gal(b1-4)Glc
# Method in brief: as §1
# [25] = target: Gal(b1-3)GalNAc(b1-4)[Neu5Ac(a2-3)]Gal(b1-4)Glc
# Method in brief: as §1
# [26] = target: Gal(b1-3)GlcNAc
# Method in brief: as §1
# [27] = target: Gal(b1-3)GlcNAc(a1-3)Gal(b1-4)GlcNAc
# Method in brief: as §1
# [28] = target: Gal(b1-3)GlcNAc(a1-6)Gal(b1-4)GlcNAc
# Method in brief: as §1
# [29] = target: Gal(b1-3)GlcNAc(b1-2)Man
# Method in brief: as §1
# [30] = target: Gal(b1-3)GlcNAc(b1-2)Man(a1-3)[Gal(b1-3)GlcNAc(b1-2)Man(a1-6)]Man(b1-4)GlcNAc(b1-4)GlcNAc
# Method in brief: as §1
# [31] = target: Gal(b1-3)GlcNAc(b1-2)Man(a1-3)[Gal(b1-3)GlcNAc(b1-2)Man(a1-6)]Man(b1-4)GlcNAc(b1-4)[Fuc(a1-6)]GlcNAc
# Method in brief: as §1
# [32] = target: Gal(b1-3)GlcNAc(b1-2)Man(a1-3)[GlcNAc(b1-4)][Gal(b1-3)GlcNAc(b1-2)Man(a1-6)]Man(b1-4)GlcNAc(b1-4)GlcNAc
# Method in brief: as §1
# [33] = target: Gal(b1-3)GlcNAc(b1-2)[Gal(b1-3)GlcNAc(b1-6)]Man(a1-6)[Gal(b1-3)GlcNAc(b1-2)Man(a1-3)]Man(b1-4)GlcNAc(b1-4)GlcNAc
# Method in brief: as §1
# [34] = target: Gal(b1-3)GlcNAc(b1-3)Gal(b1-3)GlcNAc
# Method in brief: as §1
# [35] = target: Gal(b1-3)GlcNAc(b1-3)Gal(b1-4)Glc
# Method in brief: as §1
# [36] = target: Gal(b1-3)GlcNAc(b1-3)Gal(b1-4)GlcNAc
# Method in brief: as §1
# [37] = target: Gal(b1-3)GlcNAc(b1-3)Gal(b1-4)GlcNAc(b1-2)Man(a1-3)[Gal(b1-3)GlcNAc(b1-3)Gal(b1-4)GlcNAc(b1-2)Man(a1-6)]Man(b1-4)GlcNAc(b1-4)GlcNAc
# Method in brief: as §1
binder,measurement,setting,value
PX9961V-pdi-562-26-562 (Parabacteroides distasonis) (protein) EIFSEITTDNYYQNSNNIYAALVNNYAKAFSTGWSDARYFLQEVTADQLMIPTRGKHGYNGGEYVRLHEHKWTVEENFVYNGWAAPFQGIALCNNTLSDFENLDFSTFKLTEETKNEYIAELRALRVWNYMFLIDFFRHVPIVTDIEEVKAQSTPLEVFNFMESELLAILPDLPKNRGVSRFDQAGVASILVRLYLNAEKWIGISKYDECEQMAQAILDGKYGEYSIDPDYRGPFRSGINGYRSKENIMEFAIKKNYFEASWLYNMWMHYQDRYSLDNDWQGWNGGNLAPSRDLYGNLYQDKLGMPFEKFPDGDIRKKAFRVISNDGDYEGFFLMGTQYKFDYEKGYGFTDEVITGTEEYNGKPLVYVDQVGRFSEGETGLAKGSHVIYGEENTGYRLIKFPWLPQSKDLFQMNSIPEIRLAEIYYSLAECKYRSGDKIGAARLLDVVRKRYYKAEDWSKFSYESNISKLTDDEFVDELGREFIGERHRRIDLIRWNRFSEGAWWDKTPDATNQDVFPIPYRALNANPLLKQTTAGF,glycan array binding signal (z-score),[1],-0.105
same,glycan array binding signal (z-score),[2],1.27
same,glycan array binding signal (z-score),[3],-0.109
same,glycan array binding signal (z-score),[4],-0.499
same,glycan array binding signal (z-score),[5],0.078
same,glycan array binding signal (z-score),[6],-0.237
same,glycan array binding signal (z-score),[7],-0.312
same,glycan array binding signal (z-score),[8],2.29
same,glycan array binding signal (z-score),[9],1.06
same,glycan array binding signal (z-score),[10],-0.099
same,glycan array binding signal (z-score),[11],-0.127
same,glycan array binding signal (z-score),[12],0.615
same,glycan array binding signal (z-score),[13],0.72
same,glycan array binding signal (z-score),[14],-0.137
same,glycan array binding signal (z-score),[15],-0.25
same,glycan array binding signal (z-score),[16],-0.748
same,glycan array binding signal (z-score),[17],-0.574
same,glycan array binding signal (z-score),[18],1.5
same,glycan array binding signal (z-score),[19],-0.185
same,glycan array binding signal (z-score),[20],-0.446
same,glycan array binding signal (z-score),[21],-0.036
same,glycan array binding signal (z-score),[22],-0.646
same,glycan array binding signal (z-score),[23],-0.626
same,glycan array binding signal (z-score),[24],-0.58
same,glycan array binding signal (z-score),[25],-0.422
same,glycan array binding signal (z-score),[26],-0.534
same,glycan array binding signal (z-score),[27],-0.263
same,glycan array binding signal (z-score),[28],-0.079
same,glycan array binding signal (z-score),[29],-0.428
same,glycan array binding signal (z-score),[30],3.41
same,glycan array binding signal (z-score),[31],5.1
same,glycan array binding signal (z-score),[32],-0.072
same,glycan array binding signal (z-score),[33],1.99
same,glycan array binding signal (z-score),[34],1.29
same,glycan array binding signal (z-score),[35],-0.49
same,glycan array binding signal (z-score),[36],-0.428
same,glycan array binding signal (z-score),[37],0.236
